Data: PubChem BioAssay AID1240 (Sanford-Burnham Center for Chemical Genomics, 2008)
About 800 (1.6%) of roughly 50,000 compounds showed an effect of 50% or more. The list shows a part of the results.

The compounds below were run against Bcl-2-like protein 10 (Homo sapiens) (UniProt Q9HD36) (assay: Phenotype converters, Bcl-B/TR3 peptide binding displacement, primary biochemical FP (AID 1240;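 further: 0% = Bcl-B with tracer peptide and DMSO and 100% = tracer peptide lacking Bcl-B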)). Settings: GST-Bcl-B / FITC-TR3 peptide fluorescence polarization; stronger effect = higher value; compound at 3.75 mg/L.
Sequence of UniProt Q9HD36 (Q9HD36 whole entry, looked up): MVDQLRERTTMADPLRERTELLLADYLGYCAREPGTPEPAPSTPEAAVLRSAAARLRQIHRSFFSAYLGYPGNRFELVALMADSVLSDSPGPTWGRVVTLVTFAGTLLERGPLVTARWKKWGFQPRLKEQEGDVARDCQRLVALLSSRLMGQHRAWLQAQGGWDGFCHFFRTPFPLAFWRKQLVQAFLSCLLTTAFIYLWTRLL

Compound	displacement [%]
C=COCCNC(=O)C(=O)Nc1c(C)cccc1C	1.9
Cc1nc(NC(=O)c2ccccc2Br)sc1C	-14.2
CC(C)C1=NN2C(=N)/C(=C/c3ccc(Sc4ccc(Cl)cc4)o3)C(=O)N=C2S1	-18.4
COC(=O)C1CN(S(=O)(=O)c2ccccc2)CCN1S(=O)(=O)c1ccccc1 (centres undefined)	0.1
CC(/C=C/c1ccccc1)=N\Nc1ccc([N+](=O)[O-])cc1[N+](=O)[O-]	14.9
O=C(CC1(O)C(=S)Nc2ccccc21)c1ccc(Br)cc1 (centres undefined)	-14.3
COc1cc(NC(=O)c2ccc(C)c([N+](=O)[O-])c2)cc(OC)c1	-5.1
CC(=O)NC1=NC(=O)/C(=C\c2ccc(-c3ccc(Cl)c(C(=O)O)c3)o2)S1	-115
COc1ccccc1C(=O)NNC(=O)COc1ccc(C)cc1C	5.9
CC(=O)N1C(=O)/C(=C2\SC(=O)NC2=O)c2ccccc21	-8
COc1cc(/C=N/Nc2ccc([N+](=O)[O-])cc2)ccc1OC(C)=O	6.1
CCOc1ccccc1/C=N/Nc1nnc(-c2ccccc2)c(=O)[nH]1	-10.7
COc1ccc(C2=CC(=O)CC(c3ccccc3)C2)cc1 (centres undefined)	-9.1
O=C(O)CN(c1ccc(Cl)cc1)S(=O)(=O)c1ccccc1	-2.3
COc1cc(/C=C2\C(=O)NN(c3ccccc3)C2=O)cc(OC)c1	2.3
CCC(Oc1ccccc1)C(=O)Nc1cc(Cl)ccc1Cl (centres undefined)	-3.6
Cc1ccc(S(=O)(=O)N2CCSC2c2ccccc2)cc1 (centres undefined)	7.3
CCOc1cc(/C=C2\SC(=S)N(Cc3ccco3)C2=O)ccc1O	-18.8
O=C(Nc1ccccc1Br)c1ccccc1O	-10.4
Cn1c(=O)c2c(ncn2CC(=O)Nc2ncccn2)n(C)c1=O	-4.6
Cc1c(C#N)c2ccc(O)c(CN(C)C)c2n1-c1ccccc1	44.3
O=C(Nc1ccc(Cl)cc1Cl)c1cc2nc(-c3ccccc3)cc(C(F)(F)F)n2n1	-10

Compound	displacement [%]
Cc1cc(Cl)ccc1OCC(=O)Nc1cccc2nsnc12	2.3
CC(C)(C)C(=O)CC(C)(O)c1ccc(Cl)cc1 (centres undefined)	5.4
O=C(CCc1ccccc1)Nc1cccc(Cl)c1	9.2
CN1C(=O)C(=Cc2cc(Cl)ccc2O)C(=O)N(C)C1=O	2.9
Cc1ccc(C2/C(=C(\O)c3ccc(Cl)cc3)C(=O)C(=O)N2CCCn2ccnc2)cc1 (centres undefined)	-4.6
COC(=O)c1ccc(CN2CCN(CCN3C(=O)c4cccc5cccc(c45)C3=O)CC2)cc1	-18.2
CC(CC(=O)Nc1ccc(Cl)cc1)c1ccccc1 (centres undefined)	13.5
CCOC(=O)C1=C(C)NC(=O)NC1c1cc(C)cs1 (centres undefined)	-3.9
O=C(c1cnn2c1NC(c1ccc3c(c1)OCO3)CC2C(F)(F)F)N1CCN(C(c2ccccc2)c2ccccc2)CC1 (centres undefined)	6.4
Oc1[nH]c2ccccc2c1N=Nc1cccc(C(F)(F)F)c1	5.1
Cn1ccnc1SCN1C(=O)c2ccccc2C1=O	-0.8
COc1cc(NC(=O)c2ccc3c(c2)OCCO3)ccc1NC(=O)c1ccco1	2.1
CCC(Sc1n[nH]c(=O)[nH]c1=O)C(=O)OCc1ccccc1 (centres undefined)	1
C=CCN1C(=O)/C(=C\c2ccc(OS(=O)(=O)c3ccccc3[N+](=O)[O-])cc2)SC1=S	-4.5
Cc1ccc(Cn2c(/N=C/c3ccccc3O)nc3ccccc32)cc1	-6.4
O=C(CSc1nnc(-c2ccc(Br)cc2)o1)NCc1ccccc1	13.3
Cc1cc(C)cc(NC(=O)c2cc(-c3cccs3)nc3ccccc23)c1	-7.8
CC(C(=O)N1C(C)CCCC1C)N1C(=O)c2ccccc2C1=O (centres undefined)	9.6
NS(=O)(=O)c1cccc(NC(=O)c2cccc(OCc3ccccc3)c2)c1	3.8
CC(=O)c1cccc(NC(=O)CN(c2ccccc2)S(=O)(=O)c2ccccc2[N+](=O)[O-])c1	6.5
CCOCP(=O)(COCC)COCC	1.1
CC(C)(C)c1ccc(Cn2c(-c3nonc3N)nc3ccccc32)cc1	1.6

Compound	displacement [%]
CCOC(=O)c1c(NC(=O)c2ccc(Cl)c(Cl)c2)sc(C(=O)Nc2ccccc2OC)c1C	-6
O=C(Nc1cc(Cl)ccc1Cl)C1CC(=O)N(C2CCCCC2)C1 (centres undefined)	-10.9
Cc1ccc(-c2cc(C(=O)N3CCCCCC3)c3ccccc3n2)o1	5.4
COc1ccc(C2CC(=O)C3=C(C2)Nc2ccccc2NC3c2ccc(NC(C)=O)cc2)cc1OC (centres undefined)	-4.9
CCN1C(=O)/C(=C\c2cc(Cl)ccc2OCCOc2cccc(OC)c2)SC1=S	-8.1
COc1ccc(C2OCC3C(C)C=C(C)C2C3C)cc1 (centres undefined)	5.3
CCCCCOC(=O)C1=C(C)NC(=O)NC1c1ccccc1Cl (centres undefined)	3.9
CCCCOc1ccc(C(=O)O/N=C2\CCOc3cc(OC)ccc32)cc1	-4
COc1ccc(CCNC(=O)C(=O)Nc2ccc(F)cc2)cc1OC	-8.9
Nc1nc(-c2ccccc2)c(-c2ccccc2)n1/N=C/c1ccccc1	-0.3
Cc1nn(C(c2ccccc2)C(O)(c2ccccc2)c2ccccc2)c(C)c1Br (centres undefined)	-7
Cc1ccc(S(=O)(=O)/N=C(/NC(=S)N2CCOCC2)c2ccccc2)cc1	-5.4
COc1ccc(N(CC(=O)Nc2cc(C)cc(C)c2)S(C)(=O)=O)cc1Cl	-0.1
COc1ccc(S(=O)(=O)N2CCN(Cc3ccc4c(c3)OCO4)CC2)cc1	-9.4
Clc1ccccc1CN1CCN(C2CCN(Cc3ccccc3)CC2)CC1	-19.8
CCOC(=O)N1CCN(C(c2ccccc2)c2ccccc2)CC1	9.4
CC1(C)CC(=O)C(/C=N/C(N)=O)=C(O)C1	2.4
CCc1c(C)nc(N)nc1N1CCCC1	13.1
COc1ccccc1C/C(N)=N/OC(=O)c1ccc(Br)cc1	-0.6
N/C(=N\OC(=O)c1cccc(Br)c1)c1ccncc1	9.4
O=C(CSc1n[nH]c(=O)[nH]c1=O)N/N=C/c1ccccc1	-8.9
CN(CCS(=O)(=O)OCC(F)(F)F)c1ccc(C=O)cc1	11.9

Compound	displacement [%]
COc1ccccc1CN/C(C)=C(\C#N)C(N)=O	-0.6
Cc1nn(S(=O)(=O)c2ccccc2[N+](=O)[O-])c(C)c1Sc1ccccc1	-9.1
O=C(c1cccnc1)N1N=C(C(F)(F)F)CC1(O)c1ccc(Cl)cc1 (centres undefined)	11.5
Fc1ccccc1OCCSc1nc2ccc(Br)cc2[nH]1	-2.9
CCOc1cc(/C=N/n2cnnc2)cc(Cl)c1O	-17.7
CCc1ccc(C(=O)CC2(O)C(=O)Nc3ccc(Br)cc32)cc1 (centres undefined)	2.3
COC(=O)Nc1c(-c2ccccc2)nc2ccc(Cl)cn12	9.7
O=C(NC1CCCCC1)c1cccc(S(=O)(=O)N2CCOCC2)c1	6.5
O=C(NC(NC(=S)Nc1c(Cl)cccc1Cl)C(Cl)(Cl)Cl)c1cccc([N+](=O)[O-])c1 (centres undefined)	-5.8
COc1ccc(NC(=O)CN(c2ccc(Br)cc2)S(C)(=O)=O)cc1	4.4
O=C1/C(=C\c2ccc(C(F)(F)F)cc2)SC(=S)N1c1ccccc1	13.6
CCOc1ccc(-c2nn(-c3ccccc3)cc2C2C(C(=O)OC)=C(C)NC(C)=C2C(=O)OC)cc1[N+](=O)[O-]	8.8
Cc1ccc(O)c(NC(=O)c2ccc(N3C(=O)c4ccc([N+](=O)[O-])cc4C3=O)cc2)c1	-0.6
COC(=O)COc1cc(Br)c(/C=C2\C(=O)NC(=O)N(c3cc(C)cc(C)c3)C2=O)cc1OC	0
CCCCOc1ccc(C2NC(=O)NC(C)=C2C(=O)OCC)cc1 (centres undefined)	14.2
COc1ccccc1OCCNc1cc(Cl)ccc1[N+](=O)[O-]	14.5
COc1cccc(OC)c1C(=O)Nc1cccc(C(=O)Nc2ccccc2C(=O)O)c1	-7.8
O=C(N/N=C/C=C/c1ccccc1)c1cc(-c2ccccc2)n[nH]1	0.7
CCOc1cc(/C=C2\SC(=S)NC2=O)ccc1OCc1ccccc1	5.4
Cc1cc(/C=C2/NC(=O)NC2=O)c(C)n1-c1cccc(Cl)c1	10
CCOC(=O)C1=C(C)N=c2s/c(=C\c3ccc(C(=O)O)cc3)c(=O)n2C1c1ccc(OC)cc1 (centres undefined)	4.4
O=C1CC(NC2CCCCC2)C(=O)N1c1ccc(Br)cc1 (centres undefined)	-0.5

Compound	displacement [%]
Ic1ccc(OCCCCN2CCOCC2)cc1	8.5
O=c1/c(=C/c2ccc(OCCOc3ccc(Br)cc3)cc2)sc2nc3ccccc3n12	-5.4
CCc1ccccc1OCCCN(CC)CC	8.2
O=c1oc(-c2ccccc2)nc2sc3c(c12)CCCCC3	5.1
COc1ccccc1C1C(C(=O)/C=C/c2ccccc2)=C(O)C(=O)N1CCCCCC(=O)O (centres undefined)	4
Cc1nnc(NC(=O)c2cccc(C(=O)O)c2)s1	-3.4
CC(C)(C)C1(C)OC(O)(C(Cl)(Cl)Cl)CC1=O (centres undefined)	-5.1
CC(=C/c1ccc(C(C)C)cc1)/C=N/NC(=O)c1cccc(N2CCCC2=O)c1	-4.2
O=C(O)/C=C/C(=O)Nc1ccc(NC(=O)c2ccccc2)c(Cl)c1	-2
N#Cc1ccccc1Sc1ccccc1C(=O)N1CCOCC1	-6
COc1ccc(NC(=O)C(=O)NCc2ccccc2)cc1Cl	12
Cc1ccc(NC(=O)OCC(F)(F)C(F)F)cc1Cl	6.7
CC(C)C(=O)NS(=O)(=O)c1ccc(NC(=O)C(F)(F)F)cc1	11
O=[N+]([O-])c1ccc(C2SCCN2S(=O)(=O)c2ccc3cccc4c3c2CC4)cc1 (centres undefined)	-1.4
O=C1c2cc(S(=O)(=O)Nc3ccc(F)cc3)ccc2-c2ccc(S(=O)(=O)Nc3ccc(F)cc3)cc21	8.5
CC(C)N(C(=O)Cn1c(CCCO)nc2ccccc21)c1ccccc1	-8.4
COc1ccc(-c2nnc(NC(=O)c3ccc(Cl)cc3Cl)s2)cc1	3.2
CCOC(=O)C1(C)C=C(Nc2ccc(C)cc2)C(=O)N1c1ccc(C)cc1 (centres undefined)	-1.6
Cc1cc(C)cc(NC(=O)CN(c2ccccc2)S(C)(=O)=O)c1	-12
CC1CCOP(=O)(C(Nc2cc(Cl)cc(Cl)c2)c2ccc(Br)cc2)O1 (centres undefined)	-4
CCOC(=O)c1c(NC(C)=O)sc2c1CCC(C)C2 (centres undefined)	-9.1
